Part of at least one peptide drawing is inferred or uncertain, most often the ends. At least one structure is not confirmed: it was looked up by name or label, or the drawing left a doubt.
Columns and labels:
[1] = target: T1, human GC-A (Homo sapiens, UniProt P16066); assay: cGMP elevating activity in CHO/human GC-A cells (Test Example 1); assay type: cell-based; settings: maximum T/C in range 0.01-100 nM; solvent only = 0, 1 nM ANP = 1
T1 construct: expressed in transfected cells; host or cells: CHO cells
T1 sequence (P16066 33-1061): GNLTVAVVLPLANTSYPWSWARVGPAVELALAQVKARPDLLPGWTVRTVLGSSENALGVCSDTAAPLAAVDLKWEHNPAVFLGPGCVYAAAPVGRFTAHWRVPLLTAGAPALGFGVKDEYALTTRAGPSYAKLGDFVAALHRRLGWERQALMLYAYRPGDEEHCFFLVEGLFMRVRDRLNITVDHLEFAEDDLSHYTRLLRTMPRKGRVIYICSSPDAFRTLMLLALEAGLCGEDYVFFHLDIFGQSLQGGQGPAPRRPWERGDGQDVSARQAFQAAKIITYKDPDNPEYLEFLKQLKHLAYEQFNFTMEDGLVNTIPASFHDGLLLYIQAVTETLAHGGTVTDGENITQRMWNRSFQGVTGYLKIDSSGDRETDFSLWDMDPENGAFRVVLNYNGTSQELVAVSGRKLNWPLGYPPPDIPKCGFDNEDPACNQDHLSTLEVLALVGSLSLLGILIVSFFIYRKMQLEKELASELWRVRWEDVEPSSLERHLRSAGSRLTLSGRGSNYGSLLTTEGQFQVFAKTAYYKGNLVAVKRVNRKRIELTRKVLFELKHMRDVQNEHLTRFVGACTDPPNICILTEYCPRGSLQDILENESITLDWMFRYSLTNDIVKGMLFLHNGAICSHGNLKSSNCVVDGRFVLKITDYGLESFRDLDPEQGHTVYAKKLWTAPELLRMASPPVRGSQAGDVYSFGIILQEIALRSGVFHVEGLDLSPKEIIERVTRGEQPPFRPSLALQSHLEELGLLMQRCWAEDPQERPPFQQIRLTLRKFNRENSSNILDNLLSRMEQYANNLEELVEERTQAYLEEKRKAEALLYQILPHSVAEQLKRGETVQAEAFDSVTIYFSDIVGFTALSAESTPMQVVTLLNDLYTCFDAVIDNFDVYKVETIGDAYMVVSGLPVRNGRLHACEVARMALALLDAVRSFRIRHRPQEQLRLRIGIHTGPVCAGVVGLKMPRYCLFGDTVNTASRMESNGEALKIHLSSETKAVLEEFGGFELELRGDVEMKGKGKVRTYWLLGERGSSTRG
Outline: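 cGMP in lysates was read by HTRF after a 15 min peptide exposure of GC-A-expressing CHO cells in a CO2 incubator, following 10 min room-temperature preincubation with 1.6 mM IBMX in KRB. T/C values were normalised between solvent wells (0) and 1 nM ANP wells (1).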

[2] = test system: cGMP concentration in plasma; assay: cGMP concentration in plasma of rats after intravenous injection (Test Example 3); assay type: in vivo; settings: rat, 100 nmol/kg i.v.; for All values integrated AUC 0-240 / All values integrated AUC 60-240 / Pre-value and higher values integrated AUC 60-240: plasma cGMP; for All values integrated AUC 0-240: 0 to 240 minutes; for All values integrated AUC 0-240 / All values integrated AUC 60-240: Pre-value as baseline, points under baseline negative; for All values integrated AUC 60-240 / Pre-value and higher values integrated AUC 60-240: 60 to 240 minutes; for Pre-value and higher values integrated AUC 60-240: only points above baseline
Procedure: The duration time (the effect of persistently elevating cGMP in blood and the time for which a test substance was detectable in blood) of each modified peptide prepared in Example 2 in the blood of rats was examined by the following method:
Before the administration and 15, 30, 60, 90, 120, 180, and 240 minutes after the administration, blood was sampled (200 μL/sampling) over time from the jugular vein. The blood samples were immediately left on ice.
The collected blood samples were centrifuged at 5000 rpm at 4° C. for 5 minutes by use of a centrifuge (Sigma 4K15, rotor: Nr12130-H). The separated plasma samples were divided into two types (samples for PK measurement and for cGMP measurement) and stored at −80° C. until measurement.
The cGMP concentration in plasma was measured using Amersham cGMP Enzyme Immunoassay Biotrak™ (EIA) System (dual range) according to the protocol attached thereto.

CC[C@H](C)[C@@H]1NC(=O)[C@H](CCCNC(=N)N)NC(=O)[C@H](CC(=O)O)NC(=O)[C@H](CCSC)NC(=O)[C@H](CCCNC(=N)N)NC(=O)CNC(=O)CNC(=O)[C@H](Cc2ccccc2)NC(=O)[C@@H](NC(=O)[C@H](CO)NC(=O)[C@H](CO)NC(=O)[C@H](CCCNC(=N)N)NC(=O)[C@H](CCCNC(=N)N)NC(=O)[C@H](CC(C)C)NC(=O)[C@H](CO)NC(=O)CNC(=O)[C@H](CSC2CC(=O)N(CCC(=O)NCCO[C@@H]3O[C@H](CO)[C@@H](O[C@@H]4O[C@H](CO)[C@@H](O[C@@H]5O[C@H](CO[C@H]6O[C@H](CO)[C@@H](O)[C@H](O)[C@@H]6O[C@@H]6O[C@H](CO)[C@@H](O[C@@H]7O[C@H](CO[C@]8(C(=O)O)C[C@H](O)[C@@H](NC(C)=O)[C@H]([C@H](O)[C@H](O)CO)O8)[C@H](O)[C@H](O)[C@H]7O)[C@H](O)[C@H]6NC(C)=O)[C@@H](O)[C@H](O[C@H]6O[C@H](CO)[C@@H](O)[C@H](O)[C@@H]6O[C@@H]6O[C@H](CO)[C@@H](O[C@@H]7O[C@H](CO[C@]8(C(=O)O)C[C@H](O)[C@@H](NC(C)=O)[C@H]([C@H](O)[C@H](O)CO)O8)[C@H](O)[C@H](O)[C@H]7O)[C@H](O)[C@H]6NC(C)=O)[C@@H]5O)[C@H](O)[C@H]4NC(C)=O)[C@H](O)[C@H]3NC(C)=O)C2=O)NC(=O)CNC(=O)[C@H](CSC2CC(=O)N(CCC(=O)NCCO[C@@H]3O[C@H](CO)[C@@H](O[C@@H]4O[C@H](CO)[C@@H](O[C@@H]5O[C@H](CO[C@H]6O[C@H](CO)[C@@H](O)[C@H](O)[C@@H]6O[C@@H]6O[C@H](CO)[C@@H](O[C@@H]7O[C@H](CO[C@]8(C(=O)O)C[C@H](O)[C@@H](NC(C)=O)[C@H]([C@H](O)[C@H](O)CO)O8)[C@H](O)[C@H](O)[C@H]7O)[C@H](O)[C@H]6NC(C)=O)[C@@H](O)[C@H](O[C@H]6O[C@H](CO)[C@@H](O)[C@H](O)[C@@H]6O[C@@H]6O[C@H](CO)[C@@H](O[C@@H]7O[C@H](CO[C@]8(C(=O)O)C[C@H](O)[C@@H](NC(C)=O)[C@H]([C@H](O)[C@H](O)CO)O8)[C@H](O)[C@H](O)[C@H]7O)[C@H](O)[C@H]6NC(C)=O)[C@@H]5O)[C@H](O)[C@H]4NC(C)=O)[C@H](O)[C@H]3NC(C)=O)C2=O)NC(=O)CNC(=O)[C@H](CSC2CC(=O)N(CCC(=O)NCCO[C@@H]3O[C@H](CO)[C@@H](O[C@@H]4O[C@H](CO)[C@@H](O[C@@H]5O[C@H](CO[C@H]6O[C@H](CO)[C@@H](O)[C@H](O)[C@@H]6O[C@@H]6O[C@H](CO)[C@@H](O[C@@H]7O[C@H](CO[C@]8(C(=O)O)C[C@H](O)[C@@H](NC(C)=O)[C@H]([C@H](O)[C@H](O)CO)O8)[C@H](O)[C@H](O)[C@H]7O)[C@H](O)[C@H]6NC(C)=O)[C@@H](O)[C@H](O[C@H]6O[C@H](CO)[C@@H](O)[C@H](O)[C@@H]6O[C@@H]6O[C@H](CO)[C@@H](O[C@@H]7O[C@H](CO[C@]8(C(=O)O)C[C@H](O)[C@@H](NC(C)=O)[C@H]([C@H](O)[C@H](O)CO)O8)[C@H](O)[C@H](O)[C@H]7O)[C@H](O)[C@H]6NC(C)=O)[C@@H]5O)[C@H](O)[C@H]4NC(C)=O)[C@H](O)[C@H]3NC(C)=O)C2=O)NC(C)=O)CSSC[C@@H](C(=O)N[C@@H](CC(N)=O)C(=O)N[C@@H](CO)C(=O)N[C@@H](Cc2ccccc2)C(=O)N[C@@H](CCCNC(=N)N)C(=O)N[C@@H](Cc2ccc(O)cc2)C(=O)O)NC(=O)CNC(=O)[C@H](CC(C)C)NC(=O)CNC(=O)[C@H](CO)NC(=O)[C@H](CCC(N)=O)NC(=O)[C@H](C)NC(=O)CNC1=O (stereo partly shown) [Compound 2-15, [(SG-)Cys-Gly]3-hANP(1-28)]
Emax [1]: 0.98
All values integrated AUC 0-240 [2]: 47.20 (pmol/ml)*h
All values integrated AUC 60-240 [2]: 7.14 (pmol/ml)*h
Pre-value and higher values integrated AUC 60-240 [2]: 36.06 (pmol/ml)*h
Time after administration at which plasma cGMP maintained a value higher than before administration [2]: 60 min

CC[C@H](C)[C@@H]1NC(=O)[C@H](CCCNC(=N)N)NC(=O)[C@H](CC(=O)O)NC(=O)[C@H](CCSC)NC(=O)[C@H](CCCNC(=N)N)NC(=O)CNC(=O)CNC(=O)[C@H](Cc2ccccc2)NC(=O)[C@@H](NC(=O)[C@H](CO)NC(=O)[C@H](CO)NC(=O)[C@H](CCCNC(=N)N)NC(=O)[C@H](CCCNC(=N)N)NC(=O)[C@H](CC(C)C)NC(=O)[C@H](CO)NC(=O)CCSCC(=O)NCCO[C@@H]2O[C@H](CO)[C@@H](O[C@@H]3O[C@H](CO)[C@@H](O[C@@H]4O[C@H](CO[C@H]5O[C@H](CO)[C@@H](O)[C@H](O)[C@@H]5O[C@@H]5O[C@H](CO)[C@@H](O[C@@H]6O[C@H](CO[C@]7(C(=O)O)C[C@H](O)[C@@H](NC(C)=O)[C@H]([C@H](O)[C@H](O)CO)O7)[C@H](O)[C@H](O)[C@H]6O)[C@H](O)[C@H]5NC(C)=O)[C@@H](O)[C@H](O[C@H]5O[C@H](CO)[C@@H](O)[C@H](O)[C@@H]5O[C@@H]5O[C@H](CO)[C@@H](O[C@@H]6O[C@H](CO[C@]7(C(=O)O)C[C@H](O)[C@@H](NC(C)=O)[C@H]([C@H](O)[C@H](O)CO)O7)[C@H](O)[C@H](O)[C@H]6O)[C@H](O)[C@H]5NC(C)=O)[C@@H]4O)[C@H](O)[C@H]3NC(C)=O)[C@H](O)[C@H]2NC(C)=O)CSSC[C@@H](C(=O)N[C@@H](CC(N)=O)C(=O)N[C@@H](CO)C(=O)N[C@@H](Cc2ccccc2)C(=O)N[C@@H](CCCNC(=N)N)C(=O)N[C@@H](Cc2ccc(O)cc2)C(=O)O)NC(=O)CNC(=O)[C@H](CC(C)C)NC(=O)CNC(=O)[C@H](CO)NC(=O)[C@H](CCC(N)=O)NC(=O)[C@H](C)NC(=O)CNC1=O [Compound 2-25, SG-thioacetamide-hANP(1-28)]
Emax [1]: 1.02
All values integrated AUC 0-240 [2]: 524.33 (pmol/ml)*h
All values integrated AUC 60-240 [2]: 205.83 (pmol/ml)*h
Pre-value and higher values integrated AUC 60-240 [2]: 207.18 (pmol/ml)*h

CC[C@H](C)[C@@H]1NC(=O)[C@H](CCCNC(=N)N)NC(=O)[C@H](CC(=O)O)NC(=O)[C@H](CCSC)NC(=O)[C@H](CCCNC(=N)N)NC(=O)CNC(=O)CNC(=O)[C@H](Cc2ccccc2)NC(=O)[C@@H](NC(=O)[C@H](CO)NC(=O)[C@H](CO)NC(=O)[C@H](CCCNC(=N)N)NC(=O)[C@H](CCCNC(=N)N)NC(=O)[C@H](CC(C)C)NC(=O)[C@H](CO)NC(=O)CCOCCOCCOCCOCCNC(=O)CO[C@@H]2O[C@H](CO)[C@@H](O[C@@H]3O[C@H](CO)[C@@H](O[C@@H]4O[C@H](CO[C@H]5O[C@H](CO)[C@@H](O)[C@H](O)[C@@H]5O[C@@H]5O[C@H](CO)[C@@H](O[C@@H]6O[C@H](CO[C@]7(C(=O)O)C[C@H](O)[C@@H](NC(C)=O)[C@H]([C@H](O)[C@H](O)CO)O7)[C@H](O)[C@H](O)[C@H]6O)[C@H](O)[C@H]5NC(C)=O)[C@@H](O)[C@H](O[C@H]5O[C@H](CO)[C@@H](O)[C@H](O)[C@@H]5O[C@@H]5O[C@H](CO)[C@@H](O[C@@H]6O[C@H](CO[C@]7(C(=O)O)C[C@H](O)[C@@H](NC(C)=O)[C@H]([C@H](O)[C@H](O)CO)O7)[C@H](O)[C@H](O)[C@H]6O)[C@H](O)[C@H]5NC(C)=O)[C@@H]4O)[C@H](O)[C@H]3NC(C)=O)[C@H](O)[C@H]2NC(C)=O)CSSC[C@@H](C(=O)N[C@@H](CC(N)=O)C(=O)N[C@@H](CO)C(=O)N[C@@H](Cc2ccccc2)C(=O)N[C@@H](CCCNC(=N)N)C(=O)N[C@@H](Cc2ccc(O)cc2)C(=O)O)NC(=O)CNC(=O)[C@H](CC(C)C)NC(=O)CNC(=O)[C@H](CO)NC(=O)[C@H](CCC(N)=O)NC(=O)[C@H](C)NC(=O)CNC1=O [Compound 2-29, SG-PEG(3)-hANP(1-28)]
Emax [1]: 1.01
All values integrated AUC 0-240 [2]: 430.38 (pmol/ml)*h
All values integrated AUC 60-240 [2]: 143.46 (pmol/ml)*h
Pre-value and higher values integrated AUC 60-240 [2]: 156.49 (pmol/ml)*h

Source: patent US10947289B2, “Glyco-modified atrial natriuretic peptide” (priority 2013, dated 2021)
